Molecules are shown by their SMILES. Hit rate of the full screen: of about 310,000 compounds, about 2,200 (0.71%) showed an effect of 50% or more. The effect is printed as a negative number. Some of the results follow.

Chain of human ether-à-go-go-related gene (hERG) potassium channel (Q12809 whole entry, looked up): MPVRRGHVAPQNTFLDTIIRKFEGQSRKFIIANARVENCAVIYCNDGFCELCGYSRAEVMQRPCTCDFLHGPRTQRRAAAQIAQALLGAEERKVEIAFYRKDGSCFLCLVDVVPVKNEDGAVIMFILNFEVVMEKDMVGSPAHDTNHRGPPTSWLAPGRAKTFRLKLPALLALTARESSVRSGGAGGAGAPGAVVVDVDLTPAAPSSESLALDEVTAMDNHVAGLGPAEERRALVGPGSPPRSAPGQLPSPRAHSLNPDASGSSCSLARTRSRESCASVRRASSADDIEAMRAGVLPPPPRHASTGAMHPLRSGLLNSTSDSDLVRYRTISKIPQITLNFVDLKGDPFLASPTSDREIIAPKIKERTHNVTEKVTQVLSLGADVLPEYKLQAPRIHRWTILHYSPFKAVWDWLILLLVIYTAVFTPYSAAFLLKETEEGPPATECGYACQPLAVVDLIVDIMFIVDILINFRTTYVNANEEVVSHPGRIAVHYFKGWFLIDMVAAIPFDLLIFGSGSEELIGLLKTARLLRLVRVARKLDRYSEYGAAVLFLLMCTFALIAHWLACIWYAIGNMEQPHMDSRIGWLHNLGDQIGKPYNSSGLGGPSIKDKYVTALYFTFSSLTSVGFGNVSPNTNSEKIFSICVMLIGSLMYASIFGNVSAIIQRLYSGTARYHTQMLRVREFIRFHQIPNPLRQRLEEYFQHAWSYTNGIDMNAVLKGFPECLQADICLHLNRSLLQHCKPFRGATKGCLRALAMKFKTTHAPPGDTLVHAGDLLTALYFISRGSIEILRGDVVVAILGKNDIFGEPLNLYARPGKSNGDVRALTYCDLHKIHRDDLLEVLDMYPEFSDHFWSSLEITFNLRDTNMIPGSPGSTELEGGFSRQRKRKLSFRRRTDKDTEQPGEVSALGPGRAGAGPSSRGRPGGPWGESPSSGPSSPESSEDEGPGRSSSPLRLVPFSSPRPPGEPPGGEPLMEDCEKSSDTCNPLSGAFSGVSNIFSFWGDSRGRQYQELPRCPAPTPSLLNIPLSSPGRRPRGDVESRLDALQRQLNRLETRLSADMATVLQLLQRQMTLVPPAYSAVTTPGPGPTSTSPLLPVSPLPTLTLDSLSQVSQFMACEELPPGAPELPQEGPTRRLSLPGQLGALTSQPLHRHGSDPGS

This assay has as its target human ether-à-go-go-related gene (hERG) potassium channel (human, UniProt Q12809). Put plainly: primary screen, population patch clamp on CHO cells stably expressing hERG.
For the compound `COC(=O)C1CN(S(=O)(=O)c2ccc(NC(C)=O)cc2)CCS1` (centres unmarked), the “hERG current change (%, negative = inhibition) at 1uM” value was determined as 14.3%.
The result for `O=C(O)C1CCN(c2ncccn2)CC1` reads 3%; that for `CCCCOc1ccc(C(=O)NCC(=O)N2CCN(Cc3ccc4c(c3)OCO4)CC2)cc1`, 7.32%; that for `O=C(/C=C/c1ccnc2ccccc12)c1cccs1`, 9.46%.
With `Cc1ccc(C(=O)NCCNC(=O)CN2CCCC2)cc1` the figure was 10.4%.
With `COc1ccc(C2=NCCc3cc(OC)c(OC)cc32)cc1` the figure was -3.21%; with `CCOc1nc(Nc2ccc(OC)c(Cl)c2)nc(N2CCN(c3ccc(OC)cc3)CC2)n1`, 5.22%; with `O=c1[nH][nH]c(-c2ccccc2)c1C=Nc1ccccc1Cl`, 12.5%.
As to `Cc1no[n+]([O-])c1COc1ccccc1/C=C1\NC(=S)NC1=O`, the “hERG current change (%, negative = inhibition) at 1uM” value stood at 3.8%.
The result for `Clc1ccc(CSc2nnc(NC3=NCCCCC3)s2)cc1` reads 5.49%.
In the case of `CCC(=O)N(C1=C(NC(C)C)C(=O)c2ccccc2C1=O)C(C)C`, the “hERG current change (%, negative = inhibition) at 1uM” value was determined as 3.16%.
The result for `O=C(O)c1ccccc1C(=O)NC1Cc2ccccc2C1` reads 5.23%; that for `CC(C)(C)OC(=O)N1CCCN(C(=O)c2ccc(Cl)cc2)CC1`, 10.9%.
Take `COc1ccc(CCNC(=O)CN(c2cc(C)cc(C)c2)S(=O)(=O)c2c(C)noc2C)cc1OC`: the “hERG current change (%, negative = inhibition) at 1uM” value was 13.9%.
With `COc1cccc(N(CC(=O)NC2CCCCC2)C(=O)CCC(=O)Nc2nc(C)cs2)c1` the figure was 4.12%.
With `CC(=O)c1cccc(NC(=O)N2CCCC2C(=O)Nc2cccc(C)c2C)c1` (centres unmarked) the figure was 10.1%.
With `O=C1C=C(NCc2ccc3c(c2)OCO3)CC(c2ccccc2)C1` (centres unmarked) the figure was -81.9%; with `Nc1c2c(nc3ccn(Cc4ccccc4)c(=O)c13)CCC2`, -59%; with `O=C(O)c1cc(NN=C2c3ccccc3-c3ccccc32)ccc1Cl`, 11.4%.
For the compound `O=C(Cc1nnc(NC(=O)c2ccccc2)s1)N/N=C/c1cccc(O)c1`, the “hERG current change (%, negative = inhibition) at 1uM” value worked out at 18.9%.
Consider `COC(=O)c1c(NC(=O)CC2SC(N)=NC2=O)sc2c1CCCC2` (centres unmarked), for which the “hERG current change (%, negative = inhibition) at 1uM” value is 12.2%.
With `CCOC(=O)C1(Cc2ccccc2)CCN(Cc2cc(OC)c3c(c2)OCO3)CC1` the figure was 0.839%; with `CCCn1ncc(OC)c(Cl)c1=O`, 13.1%; with `Cc1cc(NC(=O)CN2C(=O)NC(Cc3ccccc3)C2=O)no1` (centres unmarked), 1.73%.
`CCOC(=O)CSc1nc2sc3c(c2c(=O)n1-c1ccccc1)CCN(C(C)C)C3`: the “hERG current change (%, negative = inhibition) at 1uM” value amounted to 14%.
The result for `CCc1cc2c(N[C@@H](Cc3ccccc3)C(=O)O)ncnc2s1` reads 14.4%; that for `Clc1cc(/C=N\NC2=NCCN2)cc(Cl)n1`, -0.437%; that for `Nn1c(SCC(=O)Nc2ccc(F)cc2F)nnc1C1CCCCC1`, -1.02%.
With `CCN1CCN(CCC(=O)Nc2cccc(OC)c2)CC1.Cl` the figure was -3.67%; with `CCN(CC)CCNC(=O)c1cn(CC)c2ccc(S(=O)(=O)N3CCOCC3)cc2c1=O`, 16.9%.
The result for `CCOc1cc(NC(=S)NCCCN2CCOCC2)c(OCC)cc1NC(=O)c1cccc(F)c1` reads -0.782%; that for `CCOc1ccccc1-n1c(SCC(N)=O)nc2ccccc2c1=O`, -2.44%; that for `COc1ccc(S(=O)(=O)N2c3ccccc3NC(=O)CC2C)cc1` (centres unmarked), 5.59%.
For the compound `O=C(CCN1c2ccccc2Sc2ccccc21)OCc1nnc(-c2ccccc2)o1`, the “hERG current change (%, negative = inhibition) at 1uM” value was determined as 11.5%.
The result for `CCOC(=O)c1c(C)c(C(=O)NCCOC)c(C)n1CC` reads -2.65%; that for `Nn1c(SCC(=O)N2CCCCC2)nnc1-c1ccncc1`, 11.9%; that for `Cc1ccc(OCC(=O)NN2C(=O)c3ccccc3C2=O)cc1`, 3.38%.
Consider `Cc1ccc(Cn2ncc(C)c2N)o1`, for which the “hERG current change (%, negative = inhibition) at 1uM” value is recorded as 14.1%.
The result for `CCOC(=O)C(=NC(C)(C)C)NNc1cc(Cl)ccc1Cl` reads 6.25%.
With `COc1ccc(Cc2nnc(NC(=O)C3CC(=O)N(c4ccccc4C)C3)s2)cc1OC` (centres unmarked) the figure was 14.8%; with `O=C1C2C(C(=O)N1/N=C/c1cc([N+](=O)[O-])c(O)cc1O)C1C=CC2C12CC2` (centres unmarked), 4.77%.
With `CC1=Nn2c(nnc2-c2ccccn2)SC1` the figure was -1.54%.
With `Cc1ccc(S(=O)(=O)N2CCN(S(=O)(=O)c3ccc(C)cc3)C2)cc1`, the “hERG current change (%, negative = inhibition) at 1uM” value came out at 5.65%.
Regarding `COc1cc(NC(=O)c2cccnc2)ccc1NC(=O)c1ccccc1Cl`, the “hERG current change (%, negative = inhibition) at 1uM” value is 14%.
With `CCc1cc(SC#N)ccc1N` the figure was 9.67%.
With `CC(C)CNC(=O)c1cccc(Cn2cc(Cl)cn2)c1` the figure was 16.8%; with `O=C(CSc1nnc(CNC(=O)c2c(F)cccc2F)o1)NCc1ccco1`, 15.9%.
With `O=C(COc1ccc(S(=O)(=O)N2CCOCC2)cc1)NC1CCCC1` the figure was -7.06%; with `O=C1CSC(c2ccccc2)N1c1ccccc1F` (centres unmarked), 1.19%.
For `O=C(O)c1cc(S(=O)(=O)Nc2ccc3cn[nH]c3c2)ccc1O`, the “hERG current change (%, negative = inhibition) at 1uM” value was 8.3%.
With `COC/C=C/C1=CC2=CC(=O)C(C)(OC(=O)CCC(=O)OC)C(=O)C2=CO1` (centres unmarked) the figure was 8.02%; with `CCCNC(=O)c1c(N)n(Cc2ccco2)c2nc3ccccc3nc12`, 8.24%.
The result for `O=C(CN(Cc1ccc(F)cc1)S(=O)(=O)c1ccc(S(=O)(=O)N2CCOCC2)cc1)Nc1ccccc1` reads 5.94%.
The result for `Cc1sc2ccccc2[n+]1CC(=O)O.[Br-]` reads 12.3%.
`COC(=O)CSCC(=O)Nc1nnc(-c2cccc(C)c2)s1`: the “hERG current change (%, negative = inhibition) at 1uM” value was 6.73%.
For `COc1ccc(C(CNC(=O)CN2C(=O)NC3(CCCC3)C2=O)N(C)C)cc1` (centres unmarked), the “hERG current change (%, negative = inhibition) at 1uM” value was 13.2%.
Consider `Cc1ccnc(NC(=O)CNC(=O)c2ccco2)c1`, for which the “hERG current change (%, negative = inhibition) at 1uM” value was found to be 9.8%.
With `CCOc1ccc(C(=O)Nc2cc(Cl)ccc2-n2cncn2)cc1OC` the figure was 10.5%; with `Cc1ccc(S(=O)(=O)N(C)C)cc1NC(=O)CN1C(=O)NC(Cc2ccccc2)C1=O` (centres unmarked), 15.9%.
